Assay results from PubChem BioAssay AID1347120 (National Center for Advancing Translational Sciences (NCATS), 2019).
Hit rate of the full screen: of about 390,000 compounds, about 930 (0.24%) were called active. Inconclusive results, whose numbers are uncertain, are shown with a selection of clear calls. Calls follow the shape of the dose curve; as a rule, active = well fitted activation curve with a large enough effect; inconclusive = small, poorly fitted or top-dose-only effect; inactive = no such curve, though single readings can be large or run the other way. Potencies beside an inconclusive call are fits to weak or partial responses and may not hold up.

experiment: qHTS for Suppressors of FUS Proteinopathy: Primary screen using FUS-linked yeast assay; also: nearly all actives have a fitted effect of over 55% in size;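 as to growth rescue (activation): plate controls were DMSO vehicle for no effect and reference control for full effect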; conditions: S. cerevisiae FUS-expressing, OD600, 24 h; Potency: growth rescue; growth rescue (activation): at 76.6 µM (top of the series)
How it was run: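 Read-out: OD at 600 nm after 24hr at 30C, reporting rescue of FUS-induced yeast toxicity. Cells at OD 0.005 in galactose (2%) minimal medium; compounds tested in a dilution series; CP55940 titration from 92uM final as control.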
Potency is read from the fitted curve at half-maximal effect; tags tell the direction and shape of the fitted curve.

| Structure (SMILES) | growth rescue (activation) | Potency |
| --- | --- | --- |
| CCOc1ccc(Br)cc1C1=NN(C(C)=O)C(c2ccc([N+](=O)[O-])s2)O1 (stereo unspecified) | inactive: -2.87% |  |
| C#CCNC(=O)C1=C[C@H](c2ccc3c(c2)OCO3)C[C@H](OCCCCO)O1 |  | inconclusive: 31.6 µM [activator, single point] |
| CCCCCNC(=O)C(C1CC1)n1c(=O)c(-c2ccco2)nc2ccccc21 (stereo unspecified) |  | inconclusive: 4.47 µM [activator, full curve] |
| COc1ccc(C(C)C)cc1S(=O)(=O)NCCc1c(C)[nH]c2ccc(C)cc12 |  | inconclusive: 15.8 µM [activator, partial curve] |
| COc1ccc(C(=O)Nc2ccc(NC(=O)c3ccco3)c(Cl)c2)cc1OC |  | inconclusive: 20 µM [activator, partial curve] |
| O=C1N[C@@H](c2ccccc2)COC(=O)[C@@H](Cc2ccc(F)cc2)CC/C=C/C[C@@H]1CC(=O)N(CCO)Cc1ccccc1 |  | inconclusive: 20 µM [activator, partial curve, poor fit] |
| Cn1c(CCC(=O)Nc2ccc(S(C)(=O)=O)cc2)nc2cc(S(=O)(=O)N3CCOCC3)ccc21 |  | inconclusive: 22.4 µM [activator, partial curve] |
| C[C@H]1CCCN1c1ccc2c(c1)OCCCN(C1CC1)S2(=O)=O | inactive: 6.7% |  |
| O=C(NCc1ccc2c(c1)OCO2)C(=O)NCC1OCCN1S(=O)(=O)c1ccc(Br)cc1 (stereo unspecified) |  | inconclusive: 20 µM [activator, partial curve] |
| CC(=O)N(C)/C=C1\Sc2ccccc2C1=O | inactive: -11.4% |  |
| COc1ccc(N(CC(=O)Nc2ccccc2Cl)S(=O)(=O)c2ccc(C)cc2)cc1OC |  | inconclusive: 35.5 µM [activator, single point] |
| Cc1cccc(N=Nc2ccc(O)c3ncccc23)c1 | inactive: 38.1% |  |
| Cn1c(=O)oc2cc(S(=O)(=O)N3CCCC(C(=O)NCC4COc5ccccc5O4)C3)ccc21 (stereo unspecified) |  | inconclusive: 28.2 µM [activator, partial curve] |
| CC(C)=CCC[C@H](C)C[C@@H]1Cc2[nH][nH]c(=O)c2[C@@H](c2ccc(F)cc2)O1 |  | inconclusive: 28.2 µM [activator, partial curve, poor fit] |
| COC(=O)[C@@]1(Cc2ccc(F)cc2)[C@H]2c3cc(C(=O)N(C)C)n(Cc4cc(C)n(C)n4)c3C[C@H]2CN1C(=O)c1ccccc1 |  | inconclusive: 11.2 µM [activator, partial curve, poor fit] |
| Clc1ccccc1-c1ncc2ccccn12 | inactive: -7.56% |  |
| COc1cccc(C(NC(C)=O)c2nc(-c3ccc(OC)nc3)cs2)c1 (stereo unspecified) |  | inconclusive: 31.6 µM [activator, partial curve, poor fit] |
| O=C(c1c(F)cccc1F)N1CCCC(c2nc(-c3ccc(F)cc3)no2)C1 (stereo unspecified) |  | inconclusive: 28.2 µM [activator, partial curve, poor fit] |

| Structure (SMILES) | growth rescue (activation) | Potency |
| --- | --- | --- |
| Cc1ccc(C(=O)NCC(c2cccs2)S(=O)(=O)c2cccs2)cc1 (stereo unspecified) |  | inconclusive: 39.8 µM [activator, partial curve, poor fit] |
| C[C@H](CCC(=O)OCc1cn(CC(=O)c2ccc(O)cc2)nn1)C1CC[C@H]2[C@@H]3CC[C@@H]4C[C@H](O)CC[C@]4(C)[C@H]3C[C@H](O)[C@]12C (stereo partly specified) |  | inconclusive: 14.1 µM [activator, partial curve, poor fit] |
| O=C(NCc1ccco1)c1ccc2c(c1)N(Cc1ccc(Cl)cc1)C(=O)c1ccccc1S2=O (stereo unspecified) |  | inconclusive: 31.6 µM [activator, partial curve, poor fit] |
| CCCn1nnnc1SCC(=O)Nc1nnc(CC)s1 | inactive: 14% |  |
| CC(CC(=O)Nc1ncc([N+](=O)[O-])s1)c1ccccc1 (stereo unspecified) | inactive: 9.31% |  |
| CCN(C(=O)C1CCCN(S(=O)(=O)c2c(C)noc2/C=C/N(C)C)C1)c1cccc(C)c1 (stereo unspecified) |  | inconclusive: 35.5 µM [activator, single point] |
| Nc1ccc2c(c1)-c1ccccc1S(=O)(=O)N2 |  | active: 28.2 µM |
| COc1ccc(Br)cc1CNC(=O)c1cc2n(n1)CCCN(Cc1ccc(C)cc1)C2=O |  | inconclusive: 50.1 µM [activator, single point] |
| O=C(c1cc(-c2ccc(Br)cc2)nc2ccccc12)N1CCN(c2ccccc2O)CC1 |  | inconclusive: 50.1 µM [activator, single point] |
| COc1ccc(N(CC(=O)N2CC=C(c3ccccc3)CC2)S(=O)(=O)c2c(C)noc2C)cc1 |  | inconclusive: 20 µM [activator, partial curve] |
| COc1ccc(-c2nc(-c3ccc4c(c3)OCO4)[nH]c2-c2ccc(OC)cc2)cc1 |  | inconclusive: 25.1 µM [activator, partial curve, poor fit] |
| CC(C)(C)NC(=O)C[C@H]1C[C@H](C(=O)N2CCOCC2)[C@@]2(CCC3CCCC3)c3[nH]c4ccc(Cl)cc4c3CCN2C1=O |  | inconclusive: 17.8 µM [activator, partial curve, poor fit] |
| COCCNC(=O)C[C@H]1CC[C@H]2[C@@H](COc3ccc(NS(=O)(=O)c4ccc(Cl)cc4)cc3C(=O)N2C)O1 | inactive: -3.09% |  |
| CCCCCCCCN1C(=O)[C@H](CC(=O)N2CCC(c3ccccc3)CC2)C[C@@]2(C(=O)OC)CC(C)(C)CC=C12 |  | inconclusive: 8.91 µM [activator, full curve, poor fit] |
| O=c1cc(-c2ccc(O)c(-c3c(O)cc(O)c4c(=O)cc(-c5ccc(O)cc5)oc34)c2)oc2cc(O)cc(O)c12 |  | inconclusive: 5.01 µM [activator, full curve, poor fit] |
| CCOP(=O)(c1ccccc1)c1nc(-c2ccccc2C)oc1N1CCCCC1 (stereo unspecified) |  | inconclusive: 25.1 µM [activator, single point] |
| Cc1cccc(OCC(=O)Nc2ccc(Cl)c(-c3nc4ncccc4o3)c2)c1C |  | inconclusive: 25.1 µM [activator, single point] |
| COC(=O)[C@]12C[C@H](CC(=O)NCc3ccc(C)o3)C(=O)N(Cc3cccc4ccccc34)C1=C[C@H](C(C)C)O[C@@H]2C1CC1 |  | inconclusive: 28.2 µM [activator, partial curve, poor fit] |
